# Measured values reported in the supplement of paper PMC9446081.
# Hit rate of the full screen: of about 39,000 compounds, about 220 (0.56%) showed activity. The list shows a part of the results.
# System: Escherichia coli K-12 BW25113
# Experiment: relative growth (OD600 normalised to plate interquartile mean) (fraction); higher = less growth inhibition, active = 0.2 or less
# Conditions: 50 µM; LB; incubation time: overnight (16-24 h)
# 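Further: static incubation at 37 °C against the wild-type strain, values averaged over two biological replicates.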
row,SMILES,relative growth
1,Cc1noc(C)c1NC(=O)Nc1ccc2c(c1)C(=O)N([C@@H](C)CO)C[C@@H](C)[C@@H](CN(C)C(=O)NC1CCCCC1)OCCCC[C@H](C)O2,inactive: 0.972
2,COc1ccc(S(=O)(=O)Nc2ccc3c(c2)C(=O)N([C@@H](C)CO)C[C@@H](C)[C@H](CN(C)C(=O)Nc2ccccc2)OCCCC[C@@H](C)O3)cc1,inactive: 1.03
3,COc1ccc(S(=O)(=O)Nc2ccc3c(c2)CC(=O)N([C@H](C)CO)C[C@@H](C)[C@@H](CN(C)S(=O)(=O)c2cccs2)O3)cc1,inactive: 1.03
4,Cc1noc(C)c1S(=O)(=O)N(C)C[C@H]1OCCCC[C@H](C)Oc2ccc(NC(=O)Nc3ccccc3)cc2C(=O)N([C@H](C)CO)C[C@H]1C,inactive: 0.982
5,COc1cc(OC)nc([C@@H](NC(=O)C2CCN(CCN3C(=O)c4ccccc4C3=O)CC2)c2ccc(F)cc2)n1,inactive: 0.998
6,CC1=NNC(=O)CC1,inactive: 1.02
7,C[C@H]1CN([C@@H](C)CO)C(=O)Cc2cc(NS(=O)(=O)c3ccc(Cl)cc3)ccc2O[C@@H]1CN(C)S(C)(=O)=O,inactive: 1.01
8,CC(C)(C)[S@@](=O)N1Cc2cc(C(=O)NCc3ccc4c(c3)OCO4)nc(CCN3CCOCC3)c2[C@H]1CCO,inactive: 0.995
9,C[C@@H]1CN([C@@H](C)CO)C(=O)c2cccc(NC(=O)CCCCCC(=O)Nc3ccccc3N)c2O[C@@H]1CN(C)C(=O)Nc1cccc2ccccc12,inactive: 0.973
10,O=C(C[C@H]1C[C@@H]2c3cc(NS(=O)(=O)c4ccc(F)cc4)ccc3O[C@@H]2[C@H](CO)O1)NCc1ccc(Oc2ccccc2)cc1,inactive: 1
11,Cc1noc(C)c1S(=O)(=O)Nc1cccc2c1O[C@@H](CN(C)Cc1ccccc1)[C@@H](C)CN([C@@H](C)CO)C2=O,inactive: 1.01
12,O=C(C[C@@H]1CC=CC[C@H](NC(=O)OCC2c3ccccc3-c3ccccc32)C(=O)O[C@H](c2ccccc2)CNC1=O)N[C@H](CO)Cc1ccccc1,inactive: 0.969
13,Cc1cc(F)ccc1S(=O)(=O)N1CCCO[C@@H]1CNC(=O)C(=O)NCc1ccncc1,inactive: 1
14,C[C@H](CO)N1C[C@H](C)[C@@H](CN(C)Cc2ccc(-c3ccccc3)cc2)Oc2ccc(NC(=O)NC3CCCCC3)cc2CC1=O,inactive: 1.01
15,CCN1CCCC1CNC(=O)c1cc(S(N)(=O)=O)ccc1OC (stereo unspecified),inactive: 1.01
16,C[C@@H]1CN([C@H](C)CO)C(=O)c2cccc(NS(C)(=O)=O)c2O[C@@H]1CN(C)Cc1ccc(C(F)(F)F)cc1,inactive: 0.993
17,CC[C@@H]1OC[C@@H]2CN(C(=O)CN(C)C)CC[C@H]21,inactive: 1.03
18,CN(C)CC(=O)OCC(O)C(O)C(O)C(O)C(=O)[O-].[Na+] (stereo unspecified),inactive: 1.12
19,COc1ccc(CN(C)C[C@H]2OCCCC[C@H](C)Oc3ccc(NC(=O)Nc4cccc5ccccc45)cc3C(=O)N([C@@H](C)CO)C[C@H]2C)cc1,inactive: 1.02
20,Cc1cccc(N(C)C(=S)Oc2ccc3ccccc3c2)c1,inactive: 0.982
21,CCCCC/C=C\C/C=C\CCCCCCCC(=O)O,inactive: 0.904

row,SMILES,relative growth
1,Cc1noc(C)c1NC(=O)N(C)C[C@@H]1Oc2c(NC(=O)NC(C)C)cccc2C(=O)N([C@H](C)CO)C[C@@H]1C,inactive: 1.01
2,C[C@@H]1CN([C@H](C)CO)C(=O)c2cc(NC(=O)C3CCCCC3)ccc2O[C@@H](C)CCCCO[C@H]1CN(C)Cc1ccc(Cl)c(Cl)c1,inactive: 0.911
3,C[C@@H]1CN([C@@H](C)CO)C(=O)c2cc(NC(=O)Nc3ccc(C(F)(F)F)cc3)ccc2O[C@@H]1CN(C)C(=O)Nc1ccccc1,inactive: 1
4,O=C(C[C@@H]1CC[C@H](NS(=O)(=O)c2ccccc2F)[C@@H](CO)O1)NCCCN1CCOCC1,inactive: 0.991
5,COCCNC(=O)c1ccc(N2C[C@H]3C[C@@H](C2)c2cccc(=O)n2C3)c(NC(=O)c2ccc(OC)cc2)c1,inactive: 0.987
6,C[C@@H]1CN([C@@H](C)CO)C(=O)Cc2cc(N(C)C)ccc2O[C@@H]1CN(C)S(=O)(=O)c1ccc(F)cc1,inactive: 1.01
7,C[C@H]1CN([C@@H](C)CO)C(=O)Cc2cc(NC(=O)Nc3cccc4ccccc34)ccc2O[C@@H]1CN(C)C(=O)Nc1ccc(F)cc1,inactive: 0.993
8,N[C@@H](COP(=O)(O)O)C(=O)O,inactive: 1.01
9,C[C@H]1CN([C@@H](C)CO)C(=O)c2cc(NC(=O)c3ccncc3)ccc2O[C@@H]1CN(C)S(=O)(=O)c1ccc(F)cc1,inactive: 1
10,COc1cccc(S(=O)(=O)N2C[C@@H](O)COC[C@@H]3O[C@@H](CC(=O)N4CCOCC4)CC[C@H]32)c1,inactive: 0.998
11,Cc1ccc(S(=O)(=O)Nc2ccc3c(c2)C(=O)N([C@H](C)CO)C[C@@H](C)[C@H](CN(C)S(=O)(=O)c2ccccc2)O3)cc1,inactive: 1.01
12,Cc1noc(C)c1NC(=O)N(C)C[C@H]1Oc2ccc(NC(=O)Cn3cnnn3)cc2C(=O)N([C@H](C)CO)C[C@@H]1C,inactive: 0.959
13,CN1CCN(C(=O)C[C@H]2CC[C@@H](NC(=O)Cc3ccccn3)[C@H](CO)O2)CC1,inactive: 0.975
14,C[C@H](CO)N1C[C@H](C)[C@@H](CN(C)S(C)(=O)=O)OCCCC[C@H](C)Oc2ccc(NS(=O)(=O)c3ccc(F)cc3)cc2C1=O,inactive: 0.989
15,CCC(=O)Nc1ccc(C)cc1C,inactive: 1.04
16,COCCOC(=O)N1C(=O)[C@@]2(c3ccccc31)[C@H](c1ccccc1OCCO)N1[C@H](c3ccccc3)[C@H](c3ccccc3)OC(=O)[C@H]1[C@@H]2C(=O)N1CCc2cc(OC)c(OC)cc2C1,inactive: 1.05
17,CO[C@H]1CN(C(=O)c2ccnnc2)[C@H]2COC[C@@H]12,inactive: 0.979
18,Cn1c(Nc2ccc(C(F)(F)F)cc2)nc2cc(Oc3ccnc(-c4ncc(C(F)(F)F)[nH]4)c3)ccc21,inactive: 1.04
19,NC[C@@](O)(c1ccc(Cl)cc1)c1ccc(-c2cn[nH]c2)cc1,inactive: 0.98
20,COc1cccc(NC(=O)C[C@H]2CC[C@@H]3[C@H](COc4ccc(NC(=O)C5CCOCC5)cc4C(=O)N3C)O2)c1,inactive: 0.986
